# Experimental data: publication PMC4336329 (PLoS ONE, 2015)
# The whole screen tested about 310,000 compounds, of which about 14,000 (4.5%) showed an effect of 50% or more. The effect is printed as a negative number. This is one part of the list.
# Target: human ether-à-go-go-related gene (hERG) potassium channel (human, UniProt Q12809)
# Experiment: primary screen, population patch clamp on CHO cells stably expressing hERG
# 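Also: peak tail current of the secondary pulse compared with the same well before compound.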
# Chain of human ether-à-go-go-related gene (hERG) potassium channel (Q12809 whole entry, looked up): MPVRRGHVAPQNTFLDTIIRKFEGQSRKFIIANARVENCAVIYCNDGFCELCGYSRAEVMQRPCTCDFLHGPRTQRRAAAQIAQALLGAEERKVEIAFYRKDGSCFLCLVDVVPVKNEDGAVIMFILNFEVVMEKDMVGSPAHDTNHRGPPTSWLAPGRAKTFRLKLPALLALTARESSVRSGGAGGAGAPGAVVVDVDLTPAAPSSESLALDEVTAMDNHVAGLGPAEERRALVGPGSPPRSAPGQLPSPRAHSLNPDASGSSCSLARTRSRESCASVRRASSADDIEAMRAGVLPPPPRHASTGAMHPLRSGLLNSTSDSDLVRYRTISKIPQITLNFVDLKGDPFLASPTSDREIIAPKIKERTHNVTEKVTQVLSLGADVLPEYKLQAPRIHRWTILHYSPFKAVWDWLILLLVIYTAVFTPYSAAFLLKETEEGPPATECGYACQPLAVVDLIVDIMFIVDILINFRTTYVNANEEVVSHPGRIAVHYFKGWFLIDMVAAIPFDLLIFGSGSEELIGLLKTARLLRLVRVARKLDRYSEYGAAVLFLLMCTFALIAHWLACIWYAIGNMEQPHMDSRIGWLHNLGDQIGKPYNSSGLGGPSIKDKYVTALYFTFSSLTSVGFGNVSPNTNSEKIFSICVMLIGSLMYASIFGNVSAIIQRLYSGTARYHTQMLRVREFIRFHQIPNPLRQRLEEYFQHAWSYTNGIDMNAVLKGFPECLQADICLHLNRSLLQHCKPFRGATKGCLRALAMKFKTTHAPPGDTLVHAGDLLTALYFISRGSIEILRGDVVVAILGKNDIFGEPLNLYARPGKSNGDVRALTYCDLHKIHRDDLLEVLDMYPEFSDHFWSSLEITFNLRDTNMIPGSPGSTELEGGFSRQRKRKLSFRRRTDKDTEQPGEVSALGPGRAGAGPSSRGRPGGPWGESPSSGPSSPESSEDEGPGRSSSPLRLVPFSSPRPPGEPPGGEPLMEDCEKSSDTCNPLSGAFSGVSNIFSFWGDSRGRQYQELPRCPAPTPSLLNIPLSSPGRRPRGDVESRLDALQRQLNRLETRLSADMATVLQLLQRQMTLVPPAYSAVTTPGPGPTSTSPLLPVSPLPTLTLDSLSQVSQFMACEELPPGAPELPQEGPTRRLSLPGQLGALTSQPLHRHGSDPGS
row,Structure (SMILES),"hERG current change (%, negative = inhibition) at 10uM [%]"
1,CN1CCN(c2nc3c(c(=O)n(C)c(=O)n3C)n2Cc2ccccc2Cl)CC1,-6.5
2,COc1ccc(Cl)cc1C(=O)OCC(=O)Nc1cccnc1Cl,15.8
3,COc1cccc(-c2noc(Cn3nc(C)c([N+](=O)[O-])c3C)n2)c1,-6.89
4,CCN(C(=O)c1cc2c(=O)[nH]c3ccc(C)cc3c2s1)c1ccc(F)cc1,1.36
5,COc1ccc(-c2cc(C(=O)N(C)Cc3ccccc3)no2)cc1OC,-18.9
6,C/C(=N\OC(=O)c1c(-c2ccccc2Cl)noc1C)c1ccncc1,-58.6
7,O=c1[nH]n2c(=O)c3c([nH]c2c1N=Nc1cccc(C(F)(F)F)c1)CCCC3,0.417
8,Cn1cccc1C(=O)Nc1nc(-c2ccccn2)cs1,-13.8
9,C/C(=N/NC(=O)c1ccncc1)c1ccccc1,31.1
10,CN(C)/C(Cn1cncn1)=C1/N=C(c2c(F)cccc2F)OC1=O,4.34
11,O=C(Nc1ccc(-n2cccn2)cc1)C1CCN(Cc2ccsc2)CC1,-81.1
12,CC(C)(C)c1ccccc1OCC(O)CN1CCN(c2ccccn2)CC1.Cl (centres unmarked),-48.8
13,C/C(=N\NC(=O)COc1ccccc1[N+](=O)[O-])c1cccs1,10.3
14,CCC(C)c1ccc(O)c(NC(=S)NC(=O)c2cccnc2)c1 (centres unmarked),49.6
15,Cc1cccc(NS(=O)(=O)c2ccc(OCC(=O)N3CCCC3)cc2)c1,-19.1
16,C[C@@H](C(=O)NCc1ccccn1)[C@@H]1C[C@@]1(C)[C@@H](NC(=O)OCc1ccccc1)c1ccccc1,-32.6
17,Cc1cc(C)c2c(n1)nn1c(NCCOCCO)cc(C)nc21,-9.69
18,Cc1ccc(S(=O)(=O)C2(C(=O)Nc3ccc4c(c3)OCO4)CC2)cc1,-20.9
19,Cn1nc(-c2ccccc2)c(C(=O)Nc2ccc(Cl)cc2)c1Cl,-12.7
20,C=CCNC(=O)C1COc2ccccc2O1 (centres unmarked),-9.78
21,O=C(c1ccc([N+](=O)[O-])cc1)c1cc2ccc(O)cc2oc1=O,6.81
22,COc1ccc(CNC(=S)Nc2ccc3nc(N4CCOCC4)cc(C)c3c2)cc1,-24
23,C=CCNc1nc2c(c(=O)n(C)c(=O)n2C)n1Cc1ccc(F)cc1,-11

row,Structure (SMILES),"hERG current change (%, negative = inhibition) at 10uM [%]"
1,CCOc1ccc(S(=O)(=O)NCc2ccc(Cl)cc2)c2cccnc12,-24.9
2,Cc1occc1-c1nc(-c2ccncc2)no1,-10.4
3,O=C(CSc1nnnn1-c1ccc(Cl)cc1)Nc1cccnc1Cl,-19.2
4,COc1cc2ncnc(NCCCN3CCOCC3)c2cc1OC,20.8
5,C[NH+](C)CCOC(=O)C1(c2ccccc2)CCOCC1.[Cl-],14.1
6,CC(NC(=O)OC1CCCCC1)N1C(=O)C2C3C=CC(C3)C2C1=O (centres unmarked),7.03
7,COc1ccc(-c2ccc(CCC(=O)O)n2CC(=O)Nc2cccc(OC)c2)cc1,13.7
8,N#Cc1c(N)c(C#N)c(-c2ccc(O)cc2)c2c1CCCC2,-3.3
9,CSc1ncccc1C(=O)Nc1nc(C(C)(C)C)cs1,-23.5
10,CCOC(=O)c1nn(-c2cccc(Cl)c2)c2nc(Nc3ccccc3)cc(=O)n12,9.17
11,O=C(c1ccc2c(c1)ncn2-c1ccc(F)cc1F)N1CCC2(CC1)OCCO2,-6.35
12,Cc1ccccc1N(CC(=O)N/N=C/c1ccccc1Cl)C(=O)c1ccccc1,7.46
13,O=C(c1cccc(Oc2ccccc2)c1)N1CCOCC1,22.2
14,Cc1ccc(-c2ccc(=O)n(CC(=O)N3CCN(c4cc(Cl)ccc4C)CC3)n2)cc1,-8.51
15,COc1ccc(N(C)C(=O)C2CCN(S(=O)(=O)c3cccc4nonc34)CC2)cc1,5.87
16,O=C(Nc1ccccc1N1CCCC1)c1ccco1,6.36
17,O=C(CN1C(=O)CSC1=O)NC1CCCCC1,4.77
18,COc1cccc(/C=N/Nc2ccnc(=O)[nH]2)c1O,5.1
19,CN(C(=O)Cn1nnc(-c2cccc(C(F)(F)F)c2)n1)C1CCCCC1,15.9
20,COc1ccc(NC(=S)N(CCC(C)C)C2CCN(C(C)C)CC2)cc1,-39.2
21,O=C(c1cccc2nc3ccccc3nc12)N1CCOCC1,5.67
22,Cc1ccc(S(=O)(=O)N2C3C=CC(C3)C2C(=O)O)cc1 (centres unmarked),12
23,COc1cccc(NC(=O)C2CCN(C(=O)NC3CCCCC3)CC2)c1,2.51

row,Structure (SMILES),"hERG current change (%, negative = inhibition) at 10uM [%]"
1,COCCNC(=O)c1ccc(C(=O)NCCOC)s1,7.11
2,C/C=C/C=[N+](\[O-])C(C)/C(=N/O)c1ccc(F)cc1 (centres unmarked),-22
3,O=C(O)CSc1nnc(-c2ccc3c(c2)OCO3)o1,3.29
4,O=C(Nc1nccs1)C1CC(=O)N(c2ccc(Cl)cc2)C1 (centres unmarked),-12.8
5,COC(=O)c1ccccc1NC(=O)C1CCCN(S(=O)(=O)c2ccc(F)cc2)C1 (centres unmarked),-28.1
6,CCC1Sc2ccc(S(=O)(=O)CCC(=O)NC3CCCCCC3)cc2NC1=O (centres unmarked),16.1
7,CCCn1c(C(C)Nc2nc(-c3cccc(Br)c3)cs2)nc2ccccc21 (centres unmarked),-12.1
8,CC(=O)CCc1ccc(OCCCCn2cncn2)cc1,-4.29
9,COc1cccc(CC2(CO)CCCN(Cc3nc(-c4cccs4)oc3C)C2)c1 (centres unmarked),-64.5
10,CSCCC(NC(=O)/C(=C/c1ccc(F)cc1)NC(C)=O)C(=O)O (centres unmarked),12.2
11,CC(=O)Nc1ccc(C(=O)NC2CCSc3ccccc32)cc1 (centres unmarked),5.94
12,CC1(C)CC(=O)c2cc(C(=O)Nn3cnnc3)c(=O)n(-c3ccccc3)c2C1,9.5
13,Oc1ccccc1CNc1ccc2c(c1)OCCO2,8.27
14,O=C(N/N=C/c1cn(-c2ccccc2)nc1-c1cccs1)c1ccc(Cl)cc1,14.5
15,O=C(Nc1nc2ccccc2s1)C1=NN(c2ccccc2)C(=O)CC1,6.62
16,C=CCn1c(SCc2cc(=O)n3ccsc3n2)nc2sc(C)c(C)c2c1=O,4.9
17,CC(=O)c1cccc(N(CC(=O)O)S(C)(=O)=O)c1,5.02
18,Cc1cccc2cc(C#N)c(SCCN3CCCCC3)nc12.Cl,-35.3
19,Cc1ccc(NC(=O)c2noc3c2CCCCC3)cc1,-7.14
20,COC(=O)c1ccc(N(CC(=O)NC2CCCCC2)C(=O)CNC(=O)c2ccco2)cc1,4.85
21,CC1CCC(NC(=O)CSc2ccc(S(=O)(=O)N(C)C)cn2)CC1 (centres unmarked),14.3
22,CCCCOc1ccc(C(=O)NCC(=O)NCC(c2ccco2)N2CCCCC2)cc1 (centres unmarked),-21.4
23,CC1CCc2c(nc3nc[nH]n3c2=O)C1 (centres unmarked),6.32

row,Structure (SMILES),"hERG current change (%, negative = inhibition) at 10uM [%]"
1,Cc1ccc(NC(=O)CN(C)C(=O)Cc2ccccc2F)cc1,9.13
2,COc1cc2c(cc1OC)CN(C(=O)/C=C/c1cccs1)CC2,-3.58
3,Cc1ccc(/C(N)=N/OC(=O)COc2ccccc2Cl)cc1,5.39
4,CN1CCN(c2ccccc2N)CC1,6.95
5,CC(C)S(=O)(=O)c1cnc(-c2ccccn2)nc1N,2.73
6,COC(=O)[C@@]12CCCCN1[C@H](c1ccc(-c3ccccc3)cc1)[C@@H]1C(=O)N(C)C(=O)[C@@H]12.O=C(O)C(F)(F)F,6
7,CCCN(CCC)C(=O)c1ccc2c(c1)N(Cc1ccccc1)C(=O)CS2=O (centres unmarked),-9.19
8,CC(=O)N(C(C)=O)c1nc(-c2ccccc2)cn1/N=C/c1cccc([N+](=O)[O-])c1,-2.52
9,CS(=O)(=O)c1ccc(C(=O)Nc2ccc(S(=O)(=O)N3CCCCC3)cc2)cc1,-9.09
10,O=C(CNC(=O)N1CC(=O)Nc2ccccc21)NCCc1c[nH]c2ccccc12,-7.16
11,COc1ccc(-c2ccc(N(C)C)cc2)cc1[C@H]1[C@@H]2C=CCC[C@@]2(C)C(=O)N1Cc1ccccc1,11.1
12,COC(=O)CNC(=O)C(C)NC(=O)OCc1ccccc1 (centres unmarked),9.59
13,CC(=O)OCCCNc1cc(Sc2nc3ccccc3s2)c2nonc2c1[N+](=O)[O-],-3.06
14,NC(=O)c1nsc(C(=O)N(Cc2ccc(F)cc2)C(C(=O)NCC2CCCO2)c2ccc(F)cc2)c1N (centres unmarked),-14.4
15,CC(NC(=O)Cn1cc(C(F)(F)F)ccc1=O)c1ccc(F)cc1 (centres unmarked),13.3
16,Cc1cccc(OCC(=O)NCc2cc(C)nc3ccccc23)c1,-9.05
17,Nc1nc2n(n1)C(=O)CC(c1ccccc1)N2 (centres unmarked),22.9
18,O=[N+]([O-])c1ccccc1/C=C/C=N/N1CCCCC1,11.7
19,CCC(=O)Oc1ccc2c(C)cc(=O)oc2c1C(=O)c1ccccc1,3.76
20,Cc1ccccc1NC(=O)Nc1cc(S(N)(=O)=O)ccc1C,8.03
